ChEMBL document CHEMBL1201862, “PubChem BioAssay data set” (2004)

Each molecule was assayed on NCI-H322M (assay: NCI tumour cell line growth inhibition, 48 h).
For Nc1ccc2nc3n(c2c1)C(=O)c1ccccc1-3, the GI50 was inactive: > 100 µM. For COC(=O)CCCC(=O)O, the GI50 was inactive: > 100 µM. With COP(=O)(OC)c1ccc(NCc2cc(O)ccc2O)cc1 the GI50 was inactive: > 84.7 µM. For C(=N\c1nc2cc3sc(/N=C/c4ccccc4)nc3cc2s1)/c1ccccc1, the GI50 was inactive: > 100 µM. With O=c1oc2c(Cl)cc(Cl)cc2cc1-c1cn2c(n1)sc1ccccc12 the GI50 was inactive: 76 µM. For CC1=C[C@@H]2Cc3occc3C(C)(C)[C@@H]2CC1, the GI50 was inactive: 33.3 µM. In the case of O=C(CCN(C(=O)O)S(=O)(=O)c1ccc(NC(=O)c2ccccc2)cc1)Nc1ccccc1, the GI50 is reported as inactive: > 100 µM. COc1cc(Nc2cnc3cc(F)c(F)cc3n2)cc(OC)c1OC was tested, and the GI50 was inactive: > 100 µM. In the case of CC1(c2cccc(Cl)c2)CC(c2cccc(Cl)c2)=C(C#N)C(=C(C#N)C#N)N1 (stereo not given), the GI50 is reported as inactive: 19.3 µM. For CC1=CCC(C(C)(C)NC(=O)c2ccccc2)C/C1=N/O (stereo not given), the GI50 was inactive: > 100 µM. CC(=O)OC1COC(N2C(=O)/C(=N\NC(N)=S)c3cc(Br)ccc32)C(OC(C)=O)C1OC(C)=O (stereo not given) was tested, and the GI50 was inactive: 52.8 µM. CC(C)=CC(Cc1ccccc1)S(=O)(=O)c1nc2ccccc2s1 (stereo not given) was tested, and the GI50 was inactive: 20.5 µM. For CCOC(=O)CN1C(=O)c2c(NC(=O)C(=O)O)cccc2S1(=O)=O, the GI50 was inactive: > 100 µM. With CCC/C(Cl)=N\OC(=O)Nc1ccc(OC(F)(F)F)cc1 the GI50 was inactive: 20.1 µM. For Cc1cc(NS(=O)(=O)c2ccc(NC(=O)c3cccc4cc5ccccc5nc34)cc2)no1, the GI50 was inactive: 18.2 µM. Cc1cc(N(CCC#N)CCC#N)ccc1/C=C1/N=C(c2ccccc2)N(N)C1=O was tested, and the GI50 was inactive: > 100 µM. In the case of CCOC(=O)c1csc(-c2nc(CCNC(=O)c3ccccc3)sc2Cl)n1, the GI50 is reported as inactive: > 100 µM. With CCOC(=O)/C=C(\C(=O)OCC)n1ccc(=O)n(Cc2cnnn2CCCCOC(C)=O)c1=O the GI50 was inactive: 18.3 µM. In the case of O=[N+]([O-])C(=C/c1cccs1)/C(=C\c1cccs1)[N+](=O)[O-], the GI50 is reported as inactive: 2.36 µM. For CC1CC(=O)Nc2nc3ccccc3n21 (stereo not given), the GI50 was inactive: > 100 µM. With NC12CC3CC4C1CC1CC2C(C3)C4(N)C1 the GI50 was inactive: > 100 µM. With CC(NNC(=O)c1ccncc1)c1ccc(Cl)cc1Cl (stereo not given) the GI50 was inactive: > 100 µM. With COC(=O)CCC(NC(=S)N/N=C(\C)c1ccc[nH]1)C(=O)OC (stereo not given) the GI50 was inactive: > 100 µM. For O=C1C(C(c2ccccc2)N2CCOCC2)=C(O)C(c2ccccc2)N1c1ccccc1 (stereo not given), the GI50 was inactive: > 10 µM. With CC/C(SC)=[N+](\C)[O-] the GI50 was inactive: > 100 µM. With c1ccc2nn(C3CCCCO3)nc2c1 (stereo not given) the GI50 was inactive: > 100 µM. CCCCCCCCCCCCP(=O)(O)OCC(N)C(=O)O (stereo not given) was tested, and the GI50 was inactive: 24.3 µM. CSC1C=C(C(C)C)CCC1(C)SC (stereo not given) was tested, and the GI50 was inactive: 27.5 µM. For CCCCCC(C[N+]1(C)CCOCC1)C(=O)/C=C/c1ccccc1 (stereo not given), the GI50 was inactive: 7.05 µM. For CCN(CC)CCCNc1nc(=O)[nH]c(C)c1C(=O)Nc1c2ccccc2nc2ccccc12, the GI50 was inactive: 14.8 µM. For CCN(CC)CCCNC(=O)C1COc2cc(-c3cc(=O)c4ccccc4o3)ccc2O1 (stereo not given), the GI50 was inactive: > 100 µM. With OCCCCCCCCCCCOc1ccc(C2OCC3(CO2)COC(c2ccc(OCCCCCCCCCCCO)cc2)OC3)cc1 (stereo not given) the GI50 was inactive: > 50 µM. With NS(=O)(=O)c1ccc(NC(=O)C2C(=O)C(=O)N(c3ccc(S(N)(=O)=O)cc3)C2=O)cc1 (stereo not given) the GI50 was inactive: > 100 µM. For Cc1ccc(S(=O)(=O)N/N=C2/CCCOC2)cc1, the GI50 was inactive: > 100 µM. In the case of CCCN(CCCC(NC(C)=O)C(=O)NCc1ccccc1)C(=O)NCCCl (stereo not given), the GI50 is reported as inactive: > 100 µM. For CCC(=O)N1C(=O)C(CC)(CC)C(=O)N1C(=O)CC, the GI50 was inactive: > 100 µM. In the case of CN1CCc2c(sc3ncn(N)c(=N)c23)C1, the GI50 is reported as inactive: > 100 µM. For COC(=O)C1=CO[C@@H](OC2CC(CO)C(O)C(O)C2O)[C@@H]2[C@@H](C)[C@@H](OC(=O)/C=C/c3ccccc3)[C@@H](O)[C@H]12.COC(=O)C1=CO[C@@H](OC2CC(CO)C(O)C(O)C2O)[C@@H]2[C@@H](C)[C@@H](OC(=O)c3ccccc3)[C@@H](O)[C@H]12 (stereo not given in full), the GI50 was inactive: > 100 µM. With CO[C@H]1O[C@@H]2CO[C@@H](c3ccccc3)O[C@H]2[C@@H]2C/C=C\CCC[C@@]12O the GI50 was inactive: 32.7 µM. O=C1NC2OCC(O)C(O1)C2O (stereo not given) was tested, and the GI50 was inactive: > 100 µM. In the case of O=C(O)C(CO)NC(=O)n1c2ccccc2c2ccccc21 (stereo not given), the GI50 is reported as inactive: > 100 µM. In the case of COc1ccc(C2C3=C(COC3=O)Oc3cc4c(cc32)OCO4)cc1 (stereo not given), the GI50 is reported as inactive: 39.4 µM. O=C1c2ccccc2C(=O)c2nc3c(O)cccc3cc21 was tested, and the GI50 was inactive: 12.4 µM. In the case of CCOC(=O)c1cc(C)nc2c1c(=O)n(-c1ccccc1)c(=O)n2CCCCN1CCN(c2ccccc2)CC1, the GI50 is reported as inactive: 53.3 µM. For Cc1cccc(=O)c(O)c1, the GI50 was inactive: 13.5 µM. COc1ccccc1C(=O)c1c(N2CCCCC2)c(=O)c1=O was tested, and the GI50 was inactive: > 100 µM. COC(=O)C(=O)C(C(=O)OC)C(=O)C(=O)Nc1cc(Cl)c(C)cc1S(=O)(=O)O (stereo not given) was tested, and the GI50 was inactive: > 100 µM. Cc1cc2c(c(N)c1C)C(=O)c1ccccc1C2=O was tested, and the GI50 was inactive: 16.9 µM. For C1=CC(=NN=P(c2ccccc2)(c2ccccc2)c2ccccc2)C=C1, the GI50 was inactive: > 100 µM. For COCN1C(=O)[C@@H]2CCCN2C(=O)c2ccc(N)cc21, the GI50 was inactive: > 100 µM. For COC(=O)C(C(=O)C(=O)Nc1nnc(S)[nH]1)c1csc(N)n1 (stereo not given), the GI50 was inactive: > 100 µM. For O=C1CSc2nnc(CCCCCCCCc3nnc4n3NC(=O)CS4)n2N1, the GI50 was inactive: > 100 µM. For O=C(NCCN(CCNC(=O)c1cccc(=O)n1O)CCN(CCNC(=O)c1cccc(=O)n1O)CCNC(=O)c1cccc(=O)n1O)c1cccc(=O)n1O, the GI50 was inactive: > 100 µM. In the case of Cc1c(-c2ccccc2)cc(O)c2nc3ccccc3n12, the GI50 is reported as inactive: > 100 µM. With NNC(=S)N/N=C(/C(=O)Nc1ccc([N+](=O)[O-])cc1)c1nc2ccc([N+](=O)[O-])cc2nc1O the GI50 was inactive: > 100 µM. With O/N=C(\CC(O)(C(F)(F)F)C(F)(F)F)c1cccc(Cl)c1 the GI50 was inactive: 35.3 µM. With CCCC#CCOC(=O)c1cc([N+](=O)[O-])cc([N+](=O)[O-])c1 the GI50 was inactive: 45.2 µM. In the case of CC(=O)OCC1OC(N2C(=S)N[C@H]([C@@H](O)[C@H](O)[C@H](O)CO)[C@H]2O)C(OC(C)=O)C(OC(C)=O)C1OC(C)=O (stereo not given in full), the GI50 is reported as inactive: > 100 µM. For Cc1ccc(C)c(COCCOCn2ccc(N)nc2=O)c1, the GI50 was inactive: > 100 µM. In the case of COC(=O)/C(=N/NC(N)=O)C(C(=O)OC)C(=O)C(=O)Nc1ccc(Cl)cc1 (stereo not given), the GI50 is reported as inactive: > 100 µM. With CCOC(=O)c1cc2c(OC(C)=O)ccc(OC(C)=O)c2s1 the GI50 was inactive: 14.4 µM. In the case of CCOC(=O)C(C(=O)OCC)=c1sc(=C(C(=O)OCC)C(=O)OCC)s1, the GI50 is reported as inactive: > 100 µM. With COc1ccc(Cc2c(N)[nH]c(=O)[nH]c2=O)cc1 the GI50 was inactive: > 100 µM. For CCNC(=S)N/N=C(/C)c1cccc(/C(C)=N\NC(=S)NCC)n1, the GI50 was inactive: 1.95 µM. CC(=O)Nn1c(Cc2ccc(Cl)cc2)nn(C)c1=O was tested, and the GI50 was inactive: > 100 µM. With O=C(CSC1=NCCN1)c1ccccc1 the GI50 was inactive: > 100 µM. In the case of CCN1CCC(O)(c2ccc(C)cc2)C(C(=O)c2ccc(C)cc2)C1 (stereo not given), the GI50 is reported as inactive: > 100 µM. For CC1=NN2C(=O)CC(=O)N=C2S1, the GI50 was inactive: > 100 µM. CCOC(=O)N1CCN(c2c(N)nc(C)nc2O)CC1 was tested, and the GI50 was inactive: > 100 µM. O=c1c2ccccc2oc2nccnc12 was tested, and the GI50 was inactive: > 100 µM. In the case of O=[N+]([O-])c1ccccc1/C=N/C12CC3CC(CC(C3)C1)C2, the GI50 is reported as inactive: > 100 µM. In the case of COc1ccc2c(c1)-c1c(c3ccccc3n1CCN1CCCCC1)CC2, the GI50 is reported as inactive: 14 µM. In the case of CCOC(=O)C1(C(N)=O)C(=O)c2ccncc2C1=O (stereo not given), the GI50 is reported as inactive: > 100 µM. For O=C1C2CC[C@@H]3C(=O)C(Cl)(Cl)[C@@H]3CCC2C1(Cl)Cl (stereo not given in full), the GI50 was inactive: 50.8 µM. For N#Cc1c(-c2ccccc2)cc(Nc2ccc(Cl)cc2)n2c1nc1ccccc12, the GI50 was inactive: 1.44 µM. O=C1NC2(CCCCC2)C2CCCCC(O)C12 (stereo not given) was tested, and the GI50 was inactive: > 100 µM. For OCC1NC(CO)C(O)C1O (stereo not given), the GI50 was inactive: > 100 µM. With COC(=O)C1=CC(=O)OC1(OO)c1ccc(Br)cc1 (stereo not given) the GI50 was inactive: > 100 µM. In the case of Cc1[nH]c2ccccc2c1/C=N/c1ccc(/N=C/c2c(C)[nH]c3ccccc23)cc1, the GI50 is reported as inactive: 46 µM. In the case of C[C@H](CCC(=O)NCCS(=O)(=O)O)[C@H]1CC[C@H]2[C@@H]3CC[C@@H]4C[C@H](O)CC[C@]4(C)[C@H]3CC[C@]12C, the GI50 is reported as inactive: > 100 µM. In the case of C=C1CC[C@@H]2C13[C@@H]1[C@H](CC(=O)[C@@]23C)C1(C)C (stereo not given in full), the GI50 is reported as inactive: 46 µM. For COC(=O)C1=C(O)c2cc3c(cc2[C@H](c2cc(OC)c(OC)c(OC)c2)C1C(=O)OC)OCO3 (stereo not given in full), the GI50 was inactive: > 100 µM. COc1cc2c3cc1Oc1c(OC)c(OC)cc4c1C(Cc1ccc(cc1)Oc1cc(ccc1O)CC3N(C)CC2)N(C)CC4 (stereo not given) was tested, and the GI50 was inactive: 17.7 µM and inactive: 11.7 µM. In the case of COc1ccc(C2=NC(CO)[C@H](c3ccccc3)O2)cc1OC (stereo not given in full), the GI50 is reported as inactive: > 100 µM. For O=C1C2C3C=CC(C2C(=O)N1CO)C1C2C(=O)N(CO)C(=O)C2C31 (stereo not given), the GI50 was inactive: > 100 µM. Cc1c(N)nc([C@H](CC(N)=O)NC[C@H](N)C(N)=O)nc1C(=O)N[C@H](C(=O)N[C@H](C)[C@@H](O)CC(=O)N[C@H](C(=O)NC(O[C@@H]1O[C@@H](C)[C@@H](N)[C@@H](O)[C@H]1O)C(O)c1nc(-c2nc(C(=O)NCCC[S+](C)C)cs2)cs1)[C@@H](C)O)[C@H](O[C@@H]1O[C@@H](CO)[C@@H](O)[C@H](O)[C@@H]1O[C@H]1O[C@H](CO)[C@@H](O)[C@H](OC(N)=O)[C@@H]1O)c1c[nH]cn1 (stereo not given in full) was tested, and the GI50 was inactive: > 100 µM. In the case of COc1cc2nc(-c3ccccc3)cc(O)c2c(OC)c1OC, the GI50 is reported as inactive: > 100 µM. With CO[C@H]1C[C@](C)(O)Cc2cc3c(c(O)c21)C(=O)c1c(O)cc2c(c1C3=O)O[C@@H]1O[C@@]2(C)[C@H](O)[C@@H](N(C)C)[C@@H]1O the GI50 was inactive: 1.98 µM. CC(=O)c1ccc(Nc2c3ccccc3nc3occc23)cc1 was tested, and the GI50 was active: 0.17 µM. In the case of Cc1c([N+](=O)[O-])oc2ccc3ccccc3c12, the GI50 is reported as inactive: > 100 µM.

Several values for one entry are separate records, joined by “and”; a condition that tells them apart may be missing. Equal entries are not always repeated.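 How tested: cells in 96-well plates exposed to compound for 48 hours at five concentrations. Here, GI50 denotes the concentration required for 50% inhibition of growth.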 Activity calls are given as the source filed them. No stated cut-off is given here; in the data, active = GI50 up to about 1.1 µM and inactive = higher.
